# Laboratory results: paper PMC9911399, “Two distinct binding modes provide the RNA-binding protein RbFox with extraordinary sequence specificity”
# Positions count from the first letter of the chain named. This is one part of the list.
# T1: RBFOX1 RRM (Homo sapiens, UniProt Q9NWB1 109-208)
# T1 sequence: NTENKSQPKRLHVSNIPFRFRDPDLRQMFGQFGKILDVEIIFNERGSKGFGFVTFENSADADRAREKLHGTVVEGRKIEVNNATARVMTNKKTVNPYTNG
# B1: AGCACUA (DNA:RNA)
# RNA: GGGAGACCGGAAUUCAGAUUGUCCAGCACUAUUAAAUCCCGUCGUAGCCACCA
# DNA 1: CAATCTGAATTCCGGTCTCCC
# DNA 2: TGGTGGCTACGACGGGATT
# B2: UCACCUU (DNA:RNA)
# RNA: B1 RNA with A25U, G26C, C27A, A28C, A31U
# DNA 1: CAATCTGAATTCCGGTCTCCC
# DNA 2: TGGTGGCTACGACGGGATT
# B3: ACUGGUA (DNA:RNA)
# RNA: B1 RNA with G26C, C27U, A28G, C29G
# DNA 1: CAATCTGAATTCCGGTCTCCC
# DNA 2: TGGTGGCTACGACGGGATT
# B4: GGACUAU (DNA:RNA)
# RNA: B1 RNA with A25G, C27A, A28C, C29U, U30A, A31U
# DNA 1: CAATCTGAATTCCGGTCTCCC
# DNA 2: TGGTGGCTACGACGGGATT
# B5: CACAGGG (DNA:RNA)
# RNA: B1 RNA with A25C, G26A, C29G, U30G, A31G
# DNA 1: CAATCTGAATTCCGGTCTCCC
# DNA 2: TGGTGGCTACGACGGGATT
# B6: GACGGAA (DNA:RNA)
# RNA: B1 RNA with A25G, G26A, A28G, C29G, U30A
# DNA 1: CAATCTGAATTCCGGTCTCCC
# DNA 2: TGGTGGCTACGACGGGATT
# B7: GUAUGUA (DNA:RNA)
# RNA: B1 RNA with A25G, G26U, C27A, A28U, C29G
# DNA 1: CAATCTGAATTCCGGTCTCCC
# DNA 2: TGGTGGCTACGACGGGATT
# B8: AUACCCU (DNA:RNA)
# RNA: B1 RNA with G26U, C27A, A28C, U30C, A31U
# DNA 1: CAATCTGAATTCCGGTCTCCC
# DNA 2: TGGTGGCTACGACGGGATT
# B9: CAUCACA (DNA:RNA)
# RNA: B1 RNA with A25C, G26A, C27U, A28C, C29A, U30C
# DNA 1: CAATCTGAATTCCGGTCTCCC
# DNA 2: TGGTGGCTACGACGGGATT
# B10: GGGUGUA (DNA:RNA)
# RNA: B1 RNA with A25G, C27G, A28U, C29G
# DNA 1: CAATCTGAATTCCGGTCTCCC
# DNA 2: TGGTGGCTACGACGGGATT
# B11: UACCCAG (DNA:RNA)
# RNA: B1 RNA with A25U, G26A, A28C, U30A, A31G
# DNA 1: CAATCTGAATTCCGGTCTCCC
# DNA 2: TGGTGGCTACGACGGGATT
# B12: GCAACUG (DNA:RNA)
# RNA: B1 RNA with A25G, G26C, C27A, A31G
# DNA 1: CAATCTGAATTCCGGTCTCCC
# DNA 2: TGGTGGCTACGACGGGATT
# B13: AGUGUGU (DNA:RNA)
# RNA: B1 RNA with C27U, A28G, C29U, U30G, A31U
# DNA 1: CAATCTGAATTCCGGTCTCCC
# DNA 2: TGGTGGCTACGACGGGATT
# B14: UAAAGCA (DNA:RNA)
# RNA: B1 RNA with A25U, G26A, C27A, C29G, U30C
# DNA 1: CAATCTGAATTCCGGTCTCCC
# DNA 2: TGGTGGCTACGACGGGATT
# B15: AAGACCU (DNA:RNA)
# RNA: B1 RNA with G26A, C27G, U30C, A31U
# DNA 1: CAATCTGAATTCCGGTCTCCC
# DNA 2: TGGTGGCTACGACGGGATT
# B16: UCGCAGC (DNA:RNA)
# RNA: GGGAGACCGGAAUUCAGAUUGUCCUCGCAGCUUAAAUCCCGUCGUAGCCACCA
# DNA 1: CAATCTGAATTCCGGTCTCCC
# DNA 2: TGGTGGCTACGACGGGATT
# B17: AUCUGAU (DNA:RNA)
# RNA: B1 RNA with G26U, A28U, C29G, U30A, A31U
# DNA 1: CAATCTGAATTCCGGTCTCCC
# DNA 2: TGGTGGCTACGACGGGATT
# B18: GGCCCUC (DNA:RNA)
# RNA: B1 RNA with A25G, A28C, A31C
# DNA 1: CAATCTGAATTCCGGTCTCCC
# DNA 2: TGGTGGCTACGACGGGATT
# B19: AUCUAGA (DNA:RNA)
# RNA: B1 RNA with G26U, A28U, C29A, U30G
# DNA 1: CAATCTGAATTCCGGTCTCCC
# DNA 2: TGGTGGCTACGACGGGATT
# B20: UAACCCC (DNA:RNA)
# RNA: B16 RNA with C26A, G27A, A29C, G30C
# DNA 1: CAATCTGAATTCCGGTCTCCC
# DNA 2: TGGTGGCTACGACGGGATT
# B21: GGGACAU (DNA:RNA)
# RNA: B1 RNA with A25G, C27G, U30A, A31U
# DNA 1: CAATCTGAATTCCGGTCTCCC
# DNA 2: TGGTGGCTACGACGGGATT
# B22: CAGAUCU (DNA:RNA)
# RNA: B1 RNA with A25C, G26A, C27G, C29U, U30C, A31U
# DNA 1: CAATCTGAATTCCGGTCTCCC
# DNA 2: TGGTGGCTACGACGGGATT
# B23: CGACGCU (DNA:RNA)
# RNA: B1 RNA with A25C, C27A, A28C, C29G, U30C, A31U
# DNA 1: CAATCTGAATTCCGGTCTCCC
# DNA 2: TGGTGGCTACGACGGGATT
# B24: AGCAAUA (DNA:RNA)
# RNA: B1 RNA with C29A
# DNA 1: CAATCTGAATTCCGGTCTCCC
# DNA 2: TGGTGGCTACGACGGGATT
# B25: CCAGACG (DNA:RNA)
# RNA: B16 RNA with U25C, G27A, C28G, G30C, C31G
# DNA 1: CAATCTGAATTCCGGTCTCCC
# DNA 2: TGGTGGCTACGACGGGATT
# B26: GCGCAGU (DNA:RNA)
# RNA: B16 RNA with U25G, C31U
# DNA 1: CAATCTGAATTCCGGTCTCCC
# DNA 2: TGGTGGCTACGACGGGATT
# B27: AACUCCA (DNA:RNA)
# RNA: B1 RNA with G26A, A28U, U30C
# DNA 1: CAATCTGAATTCCGGTCTCCC
# DNA 2: TGGTGGCTACGACGGGATT
# B28: CGAGAUC (DNA:RNA)
# RNA: B1 RNA with A25C, C27A, A28G, C29A, A31C
# DNA 1: CAATCTGAATTCCGGTCTCCC
# DNA 2: TGGTGGCTACGACGGGATT
# B29: ACGUACG (DNA:RNA)
# RNA: B16 RNA with U25A, C28U, G30C, C31G
# DNA 1: CAATCTGAATTCCGGTCTCCC
# DNA 2: TGGTGGCTACGACGGGATT
# B30: UAAAUCA (DNA:RNA)
# RNA: B1 RNA with A25U, G26A, C27A, C29U, U30C
# DNA 1: CAATCTGAATTCCGGTCTCCC
# DNA 2: TGGTGGCTACGACGGGATT
# B31: ACUUAGU (DNA:RNA)
# RNA: B16 RNA with U25A, G27U, C28U, C31U
# DNA 1: CAATCTGAATTCCGGTCTCCC
# DNA 2: TGGTGGCTACGACGGGATT
# Target: T1, RBFOX1 RRM
# Assay: EMSA; HiTS-Eq, 1 nM pool, 10 min; buffer printed only for the single-RNA assays: 10 mM Tris pH 7.5, 150 mM NaCl, 3.4 mM EDTA, 0.001% NP-40, 30 C
# Conditions: tags: His6 N-terminal (pET28a); label: 5' 32P
# Outline: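 These values rest on relative association constants, computed from read-count changes of each RNA species versus the control reaction and normalised to the cognate motif. Reads came from free RNA recovered by 8% native PAGE after purified RbFox RRM (wild type or mutant) at increasing concentrations was equilibrated for 10 min in 50 µL with 1 nM of a 5′-radiolabelled pool with 7 randomized nucleotides and DNA-annealed flanks.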
row,Binder,binding signal
1,B1,0.0018 KA relative to UGCAUGU
2,B2,0.00586 KA relative to UGCAUGU
3,B3,0.0157 KA relative to UGCAUGU
4,B4,0.0123 KA relative to UGCAUGU
5,B5,0.00471 KA relative to UGCAUGU
6,B6,0.0162 KA relative to UGCAUGU
7,B7,0.0125 KA relative to UGCAUGU
8,B8,0.000968 KA relative to UGCAUGU
9,B9,0.00119 KA relative to UGCAUGU
10,B10,0.0189 KA relative to UGCAUGU
11,B11,0.00348 KA relative to UGCAUGU
12,B12,0.0117 KA relative to UGCAUGU
13,B13,0.0155 KA relative to UGCAUGU
14,B14,0.0104 KA relative to UGCAUGU
15,B15,0.00276 KA relative to UGCAUGU
16,B16,0.0105 KA relative to UGCAUGU

row,Binder,binding signal
1,B17,0.00644 KA relative to UGCAUGU
2,B18,0.0202 KA relative to UGCAUGU
3,B19,0.00837 KA relative to UGCAUGU
4,B20,0.00285 KA relative to UGCAUGU
5,B21,0.0188 KA relative to UGCAUGU
6,B22,0.00407 KA relative to UGCAUGU
7,B23,0.00774 KA relative to UGCAUGU
8,B24,0.00118 KA relative to UGCAUGU
9,B25,0.0064 KA relative to UGCAUGU
10,B26,0.0136 KA relative to UGCAUGU
11,B27,0.000608 KA relative to UGCAUGU
12,B28,0.00911 KA relative to UGCAUGU
13,B29,0.0111 KA relative to UGCAUGU
14,B30,0.0059 KA relative to UGCAUGU
15,B31,0.0086 KA relative to UGCAUGU
